From the supplement of paper PMC3334620
In all, about 33,000 sequences were measured (“E-score (-0.5 to 0.5)”: median about -0.016, highest 2% from about 0.32 on). Some of the results follow.

Target: T1, Stp1 (UniProt B3LFK1)
T1 sequence: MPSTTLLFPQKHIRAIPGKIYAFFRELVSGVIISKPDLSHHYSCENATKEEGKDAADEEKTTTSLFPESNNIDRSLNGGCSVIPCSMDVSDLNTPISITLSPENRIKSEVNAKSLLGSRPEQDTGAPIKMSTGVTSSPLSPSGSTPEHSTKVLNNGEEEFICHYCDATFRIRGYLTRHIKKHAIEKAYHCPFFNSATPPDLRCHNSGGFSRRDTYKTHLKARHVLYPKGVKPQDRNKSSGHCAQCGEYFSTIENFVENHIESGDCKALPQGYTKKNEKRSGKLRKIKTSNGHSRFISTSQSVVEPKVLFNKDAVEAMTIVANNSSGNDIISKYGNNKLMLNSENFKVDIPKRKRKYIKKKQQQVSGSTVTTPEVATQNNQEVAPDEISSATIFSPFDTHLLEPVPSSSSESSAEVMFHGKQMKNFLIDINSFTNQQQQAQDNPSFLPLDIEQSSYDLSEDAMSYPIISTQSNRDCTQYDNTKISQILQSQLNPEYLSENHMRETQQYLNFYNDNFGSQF
Test: PBM E-score (8-mer binding enrichment) (E-score (-0.5 to 0.5)); higher = stronger / more preferred TF binding; most listed sequences are background and not binding sites
Settings: protein concentration: 200 nM; construct: GST-full length
In short: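 The E-score, a modified Wilcoxon-Mann-Whitney statistic, was computed by the Universal PBM Analysis Suite for every ungapped eight-base word pooled with its reverse complement. Scans behind it were normalised with masliner after bound GST-tagged yeast transcription factors were detected with fluorescent anti-GST. The proteins, at about 100-200 nM, had been applied to universal all-10-mer Agilent arrays made double-stranded by primer extension.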

Sequence	PBM E-score
AGCACAAC	-0.0252
CTGGTTTC	0.0592
ACCGAACT	-0.0382
AAGAACAC	0.0921
AAGGCTGA	-0.0513
AAATTGTG	-0.163
AAGACTCG	-0.0483
CAAGACCC	-0.272
CAGCGCAG	-0.0181
CACGCTGA	-0.0008
GAAGGTAC	-0.11
AGGTCGTG	-0.143
ACTTCATC	-0.0261
TCCCCAAA	-0.0405
CTGATCGA	-0.228
AATACAGC	0.0392
CGATTGTC	-0.00563
CAAAAGCC	0.121
CCAGTGAA	-0.0703
GACGCCTA	0.0445
CCGCGGCG	0.435
ATCCCTCG	-0.184
GTGGCCCA	-0.123
AGGTAATA	0.176
AGGCCACA	-0.0702

Sequence	PBM E-score
CAATGATA	0.144
AAAGCCTT	0.0465
CTGCATAA	-0.0376
ATTCTTCG	0.00242
GTTTGGTA	0.189
CCTCACAG	-0.0104
GAGGCCAC	-0.0944
CGTGATAA	0.186
AGTTCACC	0.108
ATTATGAA	0.232
AGTCGCAT	-0.183
GCTCAAAC	0.165
GCGAGCAC	-0.208
ACTTCTTG	-0.0889
AATCTCAG	-0.205
GCTTCACA	-0.0515
CGCTAGTA	0.0319
CTGGTGGC	-0.14
GATTGGGA	-0.222
CTCATACC	0.103
GATGTCGC	-0.0594
ATAAAATA	0.168
CCGCCCCG	0.273
AAACGTCC	-0.0965
GTGTTCGA	0.0404

Sequence	PBM E-score
CGTTTTCA	0.241
CGTCTACC	-0.0252
GCGGCTAC	0.305
AACGTACG	0.0691
ACGTGAAT	0.0158
ACTGCCTG	0.0249
CGCTCACG	0.0682
ACGATGCG	-0.0608
AAGTAGAT	0.0197
GGTCCAGA	-0.0942
CGTGAATC	0.0226
CCAGTACA	-0.202
AATTGGCA	0.0379
AGGGGTTC	-0.33
ATCTTGAC	0.0119
GAACGGTA	0.0439
GTTCCGCA	0.148
AGGTGGAC	-0.203
AAAAGCCG	0.326
AAATTAGT	0.208
ACGCAGCC	0.0204
ACGTAGTC	-0.204
CCCGCCGG	-0.213
CAATTAAC	0.147
GAGGCAGA	-0.118

Sequence	PBM E-score
AATCAAAA	0.151
CCGCGCAC	0.299
GACCGGCC	-0.184
AGCCGTAT	0.435
ATTTTGCA	0.109
CCAGTGCC	0.179
GCCGGCGA	-0.00476
CGGGAAAA	-0.0802
CCTATAAA	-0.0378
CTGTTGTA	0.0828
AAAGAACA	-0.0165
TAACTTCA	0.0367
CAGATTAG	-0.192
AGCCATGA	-0.107
AACATTTA	-0.0282
GGGAGCCC	-0.335
GAGTGCAC	-0.0043
AATTTTCC	0.0625
AGTGAAGA	-0.041
AGAGATAT	-0.0244
AGCGGAAG	-0.102
GACAACAA	0.0779
ACTTATCA	-0.0319
ATAAGGGG	-0.181
TCTATCCA	-0.0202

Sequence	PBM E-score
TAGACACA	-0.101
AGTTGTCA	0.138
ACTTCCTG	-0.0515
CGATGCAG	-0.151
GAATCAAA	-0.00295
ATACTTAC	0.0388
GCCTCAAC	-0.111
TAATGCCA	0.267
CAGAGGGA	-0.168
AGTCGTTG	-0.261
ATACGCGC	0.151
CGGAACAC	0.155
ATGTCGCA	0.0188
GCGATATA	0.0834
AAGAAGAA	-0.0157
AGCTATTG	-0.0886
CAGGGGGG	-0.469
AGGTGTTC	-0.198
CCTACCGC	-0.0804
GCGGCGGA	0.358
CCGTCCCG	0.11
ATGACTGG	-0.308
GAGCTATC	-0.125
CCTTATGC	0.243
CTAGGAAA	-0.15

Sequence	PBM E-score
TCTTACCA	0.00503
TGCATTAA	0.199
AGGGACGA	-0.0417
CAAGTAGA	-0.0593
CCGGCAAC	0.0817
AAAATGGC	0.223
GTCCCTGA	-0.224
AGGTGGGG	-0.119
CGTCACCC	-0.12
CATAGCGA	0.0324
CACTTTCG	-0.0438
CACAGTTC	-0.033
GTCCAGAA	-0.0459
GAGATGGC	0.173
GTAGACTA	-0.141
ATATAGAA	0.0896
CTCAACTA	0.01
AGACAGAC	0.234
AGGGTCAG	-0.283
AGCCTGGA	-0.227
AGGGCTAG	-0.207
ACTATCCT	-0.194
AATCCCTA	0.0208
AAAGTCCA	-0.153
GAACGAAC	0.125

Sequence	PBM E-score
CGGGCTAA	-0.0457
ACCCCGAC	-0.295
TAATAGAA	0.137
AGTCGAGG	-0.242
CCTTGGGA	-0.0477
ACTTACCA	0.0513
TATCGCGA	0.0696
ACCAACTG	-0.247
AGATCGTC	-0.3
AGCCGTGG	0.334
CTCTGGTA	-0.177
ACAAGGTG	0.123
GACGAGGA	-0.0599
AGAAGCAG	-0.159
CATAGTGG	-0.0706
GGCGATAA	0.257
CACATCCC	-0.158
ATGATGAA	0.157
GACATTAC	0.0386
AGGCCGAA	-0.287
ACTGAGGA	-0.0836
AAGGGATT	-0.127
